The results in this text go back to PMC4336329 (PLoS ONE, 2015).

Molecules are shown by their SMILES. Among all 310,000 compounds or so, about 2,200 (0.71%) showed an effect of 50% or more. The effect is printed as a negative number. This is one part of the list.

human ether-à-go-go-related gene (hERG) potassium channel, sequence (Q12809 whole entry, looked up): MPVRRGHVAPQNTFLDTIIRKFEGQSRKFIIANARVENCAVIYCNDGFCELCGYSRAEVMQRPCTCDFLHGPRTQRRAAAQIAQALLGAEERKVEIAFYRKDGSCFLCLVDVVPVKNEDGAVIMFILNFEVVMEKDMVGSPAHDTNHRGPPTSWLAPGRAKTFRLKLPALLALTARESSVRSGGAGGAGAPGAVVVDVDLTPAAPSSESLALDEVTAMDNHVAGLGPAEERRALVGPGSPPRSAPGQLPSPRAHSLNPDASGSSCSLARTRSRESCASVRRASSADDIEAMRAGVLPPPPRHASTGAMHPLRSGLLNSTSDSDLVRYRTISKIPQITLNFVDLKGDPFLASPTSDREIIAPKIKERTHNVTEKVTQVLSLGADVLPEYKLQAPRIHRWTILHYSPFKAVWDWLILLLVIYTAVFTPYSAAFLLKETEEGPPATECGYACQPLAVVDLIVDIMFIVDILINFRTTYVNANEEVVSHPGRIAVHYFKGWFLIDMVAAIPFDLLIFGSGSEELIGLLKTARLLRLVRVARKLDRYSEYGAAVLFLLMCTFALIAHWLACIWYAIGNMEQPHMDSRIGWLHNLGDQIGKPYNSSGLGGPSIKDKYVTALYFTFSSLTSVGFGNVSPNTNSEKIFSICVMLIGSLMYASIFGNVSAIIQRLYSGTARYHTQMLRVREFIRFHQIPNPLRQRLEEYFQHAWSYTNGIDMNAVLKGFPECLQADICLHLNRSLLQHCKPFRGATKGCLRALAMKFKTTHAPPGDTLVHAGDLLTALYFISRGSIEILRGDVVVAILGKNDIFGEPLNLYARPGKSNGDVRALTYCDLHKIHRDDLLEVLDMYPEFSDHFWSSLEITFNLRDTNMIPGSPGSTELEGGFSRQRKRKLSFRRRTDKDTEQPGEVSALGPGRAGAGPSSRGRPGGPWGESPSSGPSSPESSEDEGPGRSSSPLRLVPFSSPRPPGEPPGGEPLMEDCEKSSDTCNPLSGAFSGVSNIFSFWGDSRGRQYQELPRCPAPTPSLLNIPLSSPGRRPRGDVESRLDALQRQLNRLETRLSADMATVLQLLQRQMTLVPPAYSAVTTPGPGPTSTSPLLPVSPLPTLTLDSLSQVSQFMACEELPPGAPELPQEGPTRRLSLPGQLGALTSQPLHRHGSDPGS

This assay addresses human ether-à-go-go-related gene (hERG) potassium channel (human, UniProt Q12809). The assay can be described thus: primary screen, population patch clamp on CHO cells stably expressing hERG.
With `COc1ccccc1N1CCN(S(=O)(=O)c2cc(-c3cc(C)no3)ccc2C(C)C)CC1`, the “hERG current change (%, negative = inhibition) at 1uM” value was 14.5%.
With `CCOc1ccc(N2C(=O)CC(N3CCc4ccccc43)C2=O)cc1` (centres unmarked) the figure was 5.06%.
As for `CC(=O)c1ccccc1OCCn1nnc(-c2ccc(C)cc2)n1`, the figure is -21.2%; as for `CCOc1ccc(NC(=O)CCNC(=O)N2C[C@H]3C[C@@H](C2)c2cccc(=O)n2C3)cc1`, 13%; as for `COc1cccc(C(=O)CSc2nnc(-c3ccco3)n2CC2CCCO2)c1` (centres unmarked), 0.587%.
On to `Cc1cccn2c(=O)c3cc(S(=O)(=O)c4ccccc4)c(=N)n(Cc4cccnc4)c3nc12`, for which the “hERG current change (%, negative = inhibition) at 1uM” value is recorded as -3.7%.
With `COc1ccc(S(=O)(=O)NCCCN2CCOCC2)cc1F` the figure was 8.18%; with `COc1ccc(S(=O)(=O)N(CC(=O)NCc2ccccn2)Cc2ccccc2)cc1`, 3.47%; with `CCOC(=O)N1CCN(S(=O)(=O)c2ccc(C(=O)NNc3nc4c(C)cccc4s3)cc2)CC1`, 14.7%.
Consider `O=C(CSc1nnc(-c2ccc(O)cc2)o1)N1CCOCC1`, for which the “hERG current change (%, negative = inhibition) at 1uM” value was found to be 9.95%.
As to `CC(C)CNC(=O)C1C2C=CC(C2)C1C(=O)O` (centres unmarked), the “hERG current change (%, negative = inhibition) at 1uM” value was determined as 18.5%.
With `COc1ccccc1C1CC(=O)NC(C)=C1C(=O)OCC1CCCO1` (centres unmarked) the figure was 14.6%; with `CC(C)(C)NC(=O)N1CCN(S(=O)(=O)c2ccc3c(c2)CCC3)CC1`, 8.69%.
With `COc1ccc(OCC(=O)N(Cc2ccc(C)o2)C2CCS(=O)(=O)C2)cc1` (centres unmarked) the figure was -2.17%; with `O=C(N=Nc1c(O)[nH]c2ccccc12)c1ccc2c(c1)OCO2`, 6.77%.
With `O=C(NC1CCCC1)C(c1ccccc1F)N(C(=O)c1ccco1)C1CCCC1` (centres unmarked) the figure was 2.59%; with `O=C(Nc1cccnc1)c1ccc(NS(=O)(=O)c2cc([N+](=O)[O-])ccc2Cl)cc1`, 12.8%.
Take `Cc1cccc(-c2nc3c(c(SCC(N)=O)n2)CCCC3)c1`: the “hERG current change (%, negative = inhibition) at 1uM” value stood at 9.62%.
With `COc1cccc(NC(=O)CN(C)C(=O)CCNC(=O)c2ccc(Br)cc2)c1` the figure was -3.64%; with `Cc1ccc(S(=O)(=O)c2cc(Nc3ccccc3)ccc2O)cc1`, 11%.
In the case of `COc1ccc(NC2CCCN(C(=O)CSc3ccccc3)C2)cc1` (centres unmarked), the “hERG current change (%, negative = inhibition) at 1uM” value worked out at 8.31%.
As for `O=C(NCC1CCCO1)C(c1cccs1)N(Cc1ccccc1)C(=O)c1ccc(-c2ccccc2)[nH]1` (centres unmarked), the figure is 3.27%; as for `O=C(NCCSCc1c(F)cccc1Cl)c1ccc(CN2CCOCC2)cc1`, 10.1%.
As to `Cc1c(NC(=O)NC(=O)c2ccc(F)cc2)c(=O)n(-c2ccccc2)n1C`, the “hERG current change (%, negative = inhibition) at 1uM” value is 1.88%.
As for `COc1cc(N)c(Cl)cc1C(=O)OCC(=O)N(C)C1CCCCC1`, the figure is 8.82%.
As for `COCCNC(=O)/C(C#N)=C/c1ccc2c(c1)OCO2`, the figure is 17.1%.
As for `COc1ccc(CN=Cc2[nH]c3ccc(Br)c(Cl)c3c2O)cc1`, the figure is -1.23%.
`COc1ccc(-c2nc3ccccc3c(=O)n2CCN2CCOCC2)cc1`: the “hERG current change (%, negative = inhibition) at 1uM” value came to 10.1%.
Turning to `COc1cc(CNc2ccc(C)c(C)c2)cc(OC)c1OC`, the “hERG current change (%, negative = inhibition) at 1uM” value stood at 8.04%.
As to `COc1ccccc1/C=C1\SC(=S)N(N2C(=O)CCCC2=O)C1=O`, the “hERG current change (%, negative = inhibition) at 1uM” value is 7.97%.
Consider `Cc1cc(C)c(C#N)c(N2CCSCC2)n1`, for which the “hERG current change (%, negative = inhibition) at 1uM” value was determined as 11.9%.
With `O=C(c1ccc(C(F)(F)F)cc1)C1CCCN(C(=O)c2csnn2)C1` (centres unmarked), the “hERG current change (%, negative = inhibition) at 1uM” value is given as 9.85%.
With `O=C(Cc1ccc(F)cc1)Nc1cccc(-c2ccc3nncn3n2)c1` the figure was -1.56%.
For `O=C(NC(Cc1ccccc1)C(=O)O)/C(=C\c1ccc(Cl)cc1)NC(=O)c1ccccc1` (centres unmarked), the “hERG current change (%, negative = inhibition) at 1uM” value came to 22%.
As for `COc1ccc(-c2nc3ccccn3c2NC2CCCCC2)cc1SC1CCCCC1.O=C(O)C(F)(F)F`, the figure is 11.7%; as for `Cc1c(C)c2c(C)nn(-c3ccccc3)c2[nH]c1=O`, 13.9%.
As for `Cc1ccc(C)c(N2CCN(C(=O)c3csc4ccccc34)CC2)c1`, the figure is -11.3%; as for `CCc1ccc(NC(=O)C/C(C)=N/NC(=O)COc2ccccc2C)cc1`, -13.7%.
Take `CCOC(=O)Nc1ccc2c(CN(C)Cc3ccc(F)cc3)cc(=O)oc2c1`: the “hERG current change (%, negative = inhibition) at 1uM” value is recorded as 7.02%.
As for `COc1ccccc1N1CCN(C(=O)c2cc(C3CC3)on2)CC1`, the figure is -9.56%; as for `Cc1c(C)c2ccc(OCC(=O)N3CCC[C@@H]3C(=O)O)c(C)c2oc1=O`, 15.7%; as for `Cc1ccc(C(=O)C2=C(O)C(=O)N(Cc3cccnc3)C2c2ccc(Cl)cc2)o1` (centres unmarked), 14.8%.
For the compound `COc1cc(/C=C(\C#N)C(=O)Nc2ccccc2)ccc1OCCN1CCOCC1`, the “hERG current change (%, negative = inhibition) at 1uM” value was determined as 1.93%.
As for `Cc1ccc(NC(=O)c2ccccc2NS(=O)(=O)c2ccc(Cl)s2)cc1S(=O)(=O)N1CCOCC1`, the figure is 11.8%.
